Source: PubChem BioAssay AID1030 (National Center for Advancing Translational Sciences (NCATS), 2008)
Screen size: about 220,000 compounds; about 16,000 (7.3%) were called active. Inconclusive results, whose numbers are uncertain, are shown with a selection of clear calls. Calls come from the whole dose curve; as a rule, active = well fitted inhibition curve with a large enough effect (not every such curve was filed as active); inconclusive = small, poorly fitted or top-dose-only effect, or another doubt; inactive = no such curve, though single readings can be large or run the other way. No potency is given beside an inconclusive call; the fits are too rough.

target: Aldehyde dehydrogenase 1A1 (Homo sapiens) (UniProt P00352); experiment: qHTS Assay for Inhibitors of Aldehyde Dehydrogenase 1 (ALDH1A1); conditions: Purified ALDH1A1, NADH fluorescence, propionaldehyde substrate; series mostly up to 75.3 µM;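 for activity, negative = inhibition: plate controls were no enzyme wells and a reference inhibitor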
UniProt P00352, sequence (P00352 whole entry, looked up): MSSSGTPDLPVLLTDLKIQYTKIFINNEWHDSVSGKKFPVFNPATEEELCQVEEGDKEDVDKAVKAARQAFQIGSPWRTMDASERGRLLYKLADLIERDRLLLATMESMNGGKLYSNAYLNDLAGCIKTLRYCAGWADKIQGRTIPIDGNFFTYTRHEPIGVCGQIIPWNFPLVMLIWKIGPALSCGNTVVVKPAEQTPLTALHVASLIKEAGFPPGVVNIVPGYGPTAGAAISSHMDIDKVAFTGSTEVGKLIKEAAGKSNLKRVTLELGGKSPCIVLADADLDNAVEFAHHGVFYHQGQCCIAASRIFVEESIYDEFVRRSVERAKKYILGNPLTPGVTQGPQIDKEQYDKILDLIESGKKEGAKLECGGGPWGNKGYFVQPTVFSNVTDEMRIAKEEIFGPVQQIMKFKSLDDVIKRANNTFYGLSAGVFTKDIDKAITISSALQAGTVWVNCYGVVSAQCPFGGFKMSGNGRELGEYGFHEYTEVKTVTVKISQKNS
Potency is the fitted concentration of half-maximal effect; tags give direction and shape of the fitted curve.

SMILES | Potency | activity, negative = inhibition
COc1cc(CC(=O)OCC(=O)Nc2cc([N+](=O)[O-])ccc2F)cc(OC)c1OC | inconclusive [inhibitor, single point] | –
CCN(CC)c1ccc(C(=O)N/N=C(\C)c2cccnc2)cc1 | inconclusive [inhibitor, single point] | –
Cc1c2c(nc3c(C(=O)NC4CCCC4)cnn13)CCCC2 | inconclusive [inhibitor, partial curve] | –
Cc1ccc(C(=O)Oc2csc(=S)n2C(=O)c2ccc(C)cc2)cc1 | active: 3.55 µM | –
Cc1c(C2C(C#N)=C(N)N(c3cccc([N+](=O)[O-])c3)C3=C2C(=O)CCC3)cnn1C (stereo unspecified) | inactive | –
CC1(C)S[C@@H]2[C@H](NC(=O)[C@H](C(=O)O)c3ccsc3)C(=O)N2[C@H]1C(=O)O | inactive | –
CCc1cc(C(=O)N=Nc2c(O)[nH]c3ccc([N+](=O)[O-])cc23)c2ccccc2n1 | inactive | –
Cc1c(N(C(=O)CNC(=O)c2ccccc2)C2(C(=O)NC3CCCCC3)CCCCC2)c(=O)n(-c2ccccc2)n1C | inactive | –
CCOC(=O)C1(CC2CCCCO2)CCN(S(=O)(=O)c2ccsc2)CC1 (stereo unspecified) | inconclusive [inhibitor, single point] | –
C=CCNCCCCOc1ccc(OCC)cc1 | inactive | –
CC(=O)O[C@H](C(=O)O[C@@H]1C[C@@H](CCC[C@H]2O[C@H](C(=O)OC(C)C)CC[C@@H]2C)O[C@@H](CC#N)C1)c1ccccc1 | inactive | –
O=S(=O)(c1ccc2nc(SCc3cccc(Cl)c3)[nH]c2c1)N1CCOCC1 | inconclusive [inhibitor, partial curve] | –
CCCc1nc2ccc(NC(=O)NCCC(=O)OCC)cc2c(=O)n1Cc1cccc(Cl)c1 | inactive | –
Cc1ccc(C(=O)c2sc3c(c2N)c(=O)[nH]c(=O)n3CCc2ccccc2)cc1 | inconclusive [inhibitor, full curve] | –
S=C(Nc1ccccc1)N1CCCCCC1 | inconclusive [inhibitor, single point] | –
COc1cccc(/C=C/C(=O)NCc2cn3cc(Cl)ccc3n2)c1 | inconclusive [inhibitor, single point] | –
CC(=O)N1CCN(c2ncnc3sc(-c4ccccc4)cc23)CC1 | inconclusive [inhibitor, single point] | –
O=C(c1cccc(Cl)c1)N1CCN(C(=O)c2ccco2)CC1 | inconclusive [inhibitor, single point] | –
CC(C(=O)NC1C(=O)N2C(C(=O)O)=C(CSc3nnnn3C)CSC12)n1cc(Cl)cn1 (stereo unspecified) | inactive | –
CCc1ccc(OCC(=O)O/N=C(\N)Cc2ccc([N+](=O)[O-])cc2)cc1 | inconclusive [inhibitor, single point] | –
COc1ccc(C(=O)Nc2cccc(-c3cc4ccccc4oc3=O)c2)cc1[N+](=O)[O-] | inconclusive [inhibitor, single point] | –
CC(C)C(=O)Nc1ccc(NC(=O)c2cccc(F)c2)cn1 | inconclusive [inhibitor, single point] | –
Clc1nc(-c2cccnc2)nc2scc(-c3ccccc3)c12 | inconclusive [inhibitor, single point] | –
CCN(CC)S(=O)(=O)c1cc(NC(=O)C(C)N2CCN(c3ccccn3)CC2)ccc1C (stereo unspecified) | inconclusive [inhibitor, partial curve, poor fit] | –

SMILES | Potency | activity, negative = inhibition
CCN1CCN(C(=S)NCCc2ccccc2)CC1 | inactive | –
O=C(NC(N1CCCC1)C(Cl)(Cl)Cl)c1ccccc1 (stereo unspecified) | inconclusive [inhibitor, single point] | –
COc1cccc(OCCOCCN(C)CCO)c1 | inconclusive [inhibitor, single point] | –
COCc1ccc(CN2CCCC(CO)(Cc3cccc(Cl)c3)C2)o1 (stereo unspecified) | active: 8.91 µM | –
CCCC(C(=O)NC1CCCCC1)N(Cc1ccco1)C(=O)CNS(=O)(=O)c1ccccc1 (stereo unspecified) | active: 10 µM | –
CCOCCCNS(=O)(=O)c1ccc(OC)c(Cl)c1Cl | active: 2.24 µM | –
CCOC(=O)C1(CCc2ccccc2)CCN(C(=O)C2CCOCC2)CC1 | inactive | –
CN(C)S(=O)(=O)c1cccc(NC(=O)COC(=O)CCc2nc3ccccc3s2)c1 | inactive | –
Fc1ccc(/C=C2\CCCC3=C2NC(=S)NC3c2ccc(F)cc2)cc1 (stereo unspecified) | inconclusive [inhibitor, partial curve] | –
CCCC(=O)c1c(NCCO)cc(C)oc1=O | inconclusive [inhibitor, single point] | –
N#CC1=C(N2CCCCC2)c2cc3c(n2C1=O)CCCC3 | active: 8.91 µM | –
OC(CN1CCN(c2ccccn2)CC1)Cn1c2ccccc2c2ccccc21 (stereo unspecified) | inconclusive [inhibitor, single point] | –
c1ccc(C2[C@H]3CN(Cc4cccnc4)[C@H](c4ccccc4)C34CC2(c2cccnc2)C4)cc1 (stereo partly specified) | inconclusive [inhibitor, single point] | –
c1csc(CNc2nc(-c3ccoc3)nc3ccccc23)c1 | inactive | –
CN(C)CCSc1nc(N)c2c3c(sc2n1)CN(C)CC3 | inconclusive [inhibitor, partial curve] | –
COc1nc(NCc2ccco2)nc(N2CCC(C)CC2)n1 | inconclusive [inhibitor, partial curve] | –
CCCc1cc(=O)oc2c(CN3CCCC3)c(O)c(Cl)cc12 | inconclusive [inhibitor, full curve] | –
O=C(Cc1ccccc1)N/N=C/c1cc2c(cc1Cl)OCO2 | inconclusive [inhibitor, partial curve] | –
COc1ccc(C(=O)/C=C2/c3ccccc3CC(C)(C)N2C)cc1OC | active: 23.8 µM | –
O=C(O)/C=C\C(=O)Nc1ccccc1C#Cc1ccc(Br)cc1 | inconclusive [inhibitor, single point] | –
COc1ccc(OC)c(NC(=O)CS(=O)(=O)c2ccccc2)c1 | inconclusive [inhibitor, single point] | –
CCc1ccc(NC(=S)NCc2ccccc2)cc1 | inactive | –
O=C(CN1CCN(S(=O)(=O)c2ccc(Br)cc2)CC1)Nc1ccccc1F | active: 28.2 µM | –
Cn1c(=O)n(C)c2cc(S(=O)(=O)Nc3cc(Cl)ccc3O)ccc21 | inconclusive [inhibitor, single point] | –

SMILES | Potency | activity, negative = inhibition
OCCCN1CCN(CCOc2ccccc2-c2ccccc2)CC1 | inactive | –
COC(=O)Cc1ccc(NC(=S)N2CCN(c3cccc(O)c3)CC2)cc1 | inconclusive [inhibitor, single point] | –
Cc1[nH]nc(S(=O)CC(=O)O)c1[N+](=O)[O-] (stereo unspecified) | inconclusive [inhibitor, single point] | –
Cc1nc(N2N=C(c3ccc(Cl)cc3)CC2c2ccco2)sc1C(=O)N(C)C (stereo unspecified) | inconclusive [inhibitor, partial curve] | –
O=C1Nc2ccc([N+](=O)[O-])cc2C1(O)N1CCCCCC1 (stereo unspecified) | inconclusive [inhibitor, single point] | –
O=C(O)CNc1ccc(C(=O)O)cc1 | – | inactive: 6.2% [at 13.5 µM]
CO[C@@H]1COC(=O)C/C=C\[C@H](C)COC(=O)[C@H](Cc2ccccc2)NC(=O)C/C=C\[C@H]1C | – | inactive: -6.24% [at 13.5 µM]
O=C(NC(=S)Nc1cccc(O)c1)c1ccco1 | inconclusive [inhibitor, single point] | –
CCN(CC)c1ccc(C2C3CCCCC3(O)CCN2CC(=O)N2CCCCC2)cc1 (stereo unspecified) | inconclusive [inhibitor, single point] | –
CCN(CC)S(=O)(=O)c1ccc(NN)nc1 | inactive | –
COc1ccc(-n2cc(-c3ccccc3)c3c(N4CCN(CCO)CC4)ncnc32)cc1 | inconclusive [inhibitor, partial curve] | –
Cc1ccc2cc(C)c3nnc(SCC(=O)c4cccs4)n3c2c1C | inconclusive [inhibitor, single point] | –
Cc1ccc(C)n1-n1cnc2sc3c(c2c1=O)CCCCC3 | inconclusive [inhibitor, single point] | –
N#CCSc1nnc(-c2ccccc2)c(-c2ccccc2)n1 | inconclusive [inhibitor, single point] | –
O=C(CSc1nc2ccccc2o1)NCC(=O)c1ccccc1 | inconclusive [inhibitor, single point] | –
COCCCNC(=O)CCCOc1ccccc1 | inactive | –
COC(=O)C1NN=C(C(=O)c2ccccc2)C1c1ccccc1 (stereo unspecified) | inconclusive [inhibitor, partial curve] | –
Cc1onc(-c2ccccc2)c1C(=O)N/N=C/c1cccs1 | inconclusive [inhibitor, partial curve, poor fit] | –
O=C(COC(=O)C1CC2C=CC1C2)NCc1ccccc1Cl (stereo unspecified) | inactive | –
Cc1nc2ccc(C(=O)N/N=C/c3cc([N+](=O)[O-])ccc3O)cc2[nH]1 | inconclusive [inhibitor, full curve] | –
CC(=O)NNc1ncnc2c1cnn2-c1ccc(C)c(Cl)c1 | inconclusive [inhibitor, single point] | –
COC(=O)c1cc(Cl)c(NC(=O)/C=C/c2ccc(OC)cc2)cc1OC | inconclusive [inhibitor, partial curve] | –
O=C(N/N=C/c1ccc(Cl)cc1)c1cc2c(s1)-c1ccccc1CC2 | inconclusive [inhibitor, partial curve] | –
